Results as given in PubChem BioAssay AID504332 (National Center for Advancing Translational Sciences (NCATS), 2011).
Hit rate of the full screen: of about 350,000 compounds, about 31,000 (8.9%) were called active. Inconclusive means that the source gave no clear call. Such entries were picked first, then a sample of the others. Calls follow the shape of the dose curve; as a rule, active = well fitted inhibition curve with a large enough effect; inconclusive = small, poorly fitted or top-dose-only effect; inactive = no such curve, though single readings can be large or run the other way. Potencies of inconclusive entries are doubtful fits and often do not repeat.

These compounds were tested against Histone-lysine N-methyltransferase EHMT2 (Homo sapiens) (UniProt Q96KQ7) (assay: qHTS Assay for Inhibitors of Histone Lysine Methyltransferase G9a). Conditions: G9a H3K9 monomethylation, AlphaScreen, 2 h; activity, negative = inhibition: at 59 µM (top of the series) unless noted.
Summary of the method: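 AlphaScreen detection with an anti-monomethyl H3K9 antibody quantified product after a 2 h room-temperature reaction containing 500 nM biotinylated H3K9 peptide, 20 µM SAM and 20 nM enzyme, which had been preincubated 15 min with compound.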
% is scaled to controls: 0 for no effect and ±100 for the full control effect; potency is read from the fitted curve at half-maximal effect; tags tell the direction and shape of the fitted curve.
Also: nearly all actives have a fitted effect of over 75% in size.

UniProt Q96KQ7, sequence (Q96KQ7 whole entry, looked up): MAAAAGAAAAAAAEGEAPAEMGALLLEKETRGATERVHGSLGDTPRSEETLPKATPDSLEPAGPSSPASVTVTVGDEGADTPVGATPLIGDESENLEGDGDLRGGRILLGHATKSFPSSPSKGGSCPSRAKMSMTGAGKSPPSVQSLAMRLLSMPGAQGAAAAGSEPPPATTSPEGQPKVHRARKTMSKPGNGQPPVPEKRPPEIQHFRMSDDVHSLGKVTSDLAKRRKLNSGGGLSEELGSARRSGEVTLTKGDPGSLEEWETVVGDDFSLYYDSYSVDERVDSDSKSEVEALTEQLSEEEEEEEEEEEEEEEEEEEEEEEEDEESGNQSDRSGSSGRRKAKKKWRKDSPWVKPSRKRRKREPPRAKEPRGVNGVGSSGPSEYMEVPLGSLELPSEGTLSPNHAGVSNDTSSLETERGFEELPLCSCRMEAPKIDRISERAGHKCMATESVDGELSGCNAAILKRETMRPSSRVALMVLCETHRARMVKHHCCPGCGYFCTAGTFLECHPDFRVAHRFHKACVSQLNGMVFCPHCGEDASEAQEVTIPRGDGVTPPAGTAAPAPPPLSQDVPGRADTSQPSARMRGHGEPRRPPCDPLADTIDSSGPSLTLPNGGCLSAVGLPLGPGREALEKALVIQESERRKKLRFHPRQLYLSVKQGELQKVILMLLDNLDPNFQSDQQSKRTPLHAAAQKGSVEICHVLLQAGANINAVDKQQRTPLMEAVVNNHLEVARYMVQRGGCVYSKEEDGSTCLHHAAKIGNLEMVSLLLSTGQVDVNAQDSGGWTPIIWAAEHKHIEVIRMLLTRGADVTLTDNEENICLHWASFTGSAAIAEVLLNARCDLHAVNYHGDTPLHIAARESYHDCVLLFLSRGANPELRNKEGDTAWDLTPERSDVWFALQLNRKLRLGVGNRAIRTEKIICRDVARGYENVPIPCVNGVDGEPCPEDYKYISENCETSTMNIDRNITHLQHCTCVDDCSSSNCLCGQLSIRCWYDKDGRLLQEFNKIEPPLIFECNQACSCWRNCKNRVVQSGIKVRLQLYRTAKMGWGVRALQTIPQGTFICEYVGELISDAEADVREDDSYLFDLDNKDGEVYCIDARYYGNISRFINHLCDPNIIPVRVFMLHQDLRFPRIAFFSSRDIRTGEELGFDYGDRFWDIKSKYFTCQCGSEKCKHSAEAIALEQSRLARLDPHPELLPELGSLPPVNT

SMILES | Potency | activity, negative = inhibition
O=C(CSc1nnc(SCc2cccc3ccccc23)s1)Nc1ccc(C(=O)O)cc1 | inconclusive: 44.7 µM [inhibitor, partial curve] | –
Cc1oc(-c2ccc(F)cc2)cc1-c1nn2c(-c3ccoc3C)nnc2s1 | inconclusive: 39.8 µM [inhibitor, single point] | –
Cc1ccccc1-c1noc(-c2ccccc2C(=O)O)n1 | inconclusive: 89.1 µM [inhibitor, single point] | –
CCC(C)[C@H](NC(=O)N1CC(=O)Nc2ccccc21)C(=O)N[C@H](Cc1ccccc1)C(=O)O (stereo not given in full) | inconclusive: 11.2 µM [inhibitor, full curve, poor fit] | –
Cc1nc2ccccc2cc1C(=O)O | inconclusive: 31.6 µM [inhibitor, partial curve, poor fit] | –
COc1ccc(-c2sccc2C(C)C(=O)O)cc1 (stereo not given) | inconclusive: 89.1 µM [inhibitor, partial curve, poor fit] | –
NC(=O)CC(NC(=O)Cc1ccc(Br)cc1)c1ccc(N2CCC(N3CCCCC3)CC2)c([N+](=O)[O-])c1 (stereo not given) | active: 56.2 µM | –
O=C(CN1CCN(S(=O)(=O)c2ccccc2)CC1)NC(=O)NC1CCCCC1 | inconclusive: 63.1 µM [inhibitor, partial curve, poor fit] | –
NNC(=S)Nc1c(Br)cc(F)cc1Br | active: 35.5 µM | –
CCCCN1C(=O)CN(C2CCCCCC2)C(=O)C1c1ccc(OC(C)C)c(OC)c1 (stereo not given) | inactive | –
S=c1[nH]nc(COc2cccc(Cl)c2)n1Cc1ccccc1 | – | inactive: -31.7% [at 12.7 µM]
Cc1cccc(OCC(=O)Nc2ccc3nc(Nc4cccc(C(F)(F)F)c4)cc(C)c3c2)c1 | inactive | –
Cc1nc(SCc2ccc(F)cc2)c([N+](=O)[O-])[nH]1 | active: 25.1 µM | –
O=C(/C=C/c1ccc[nH]1)c1ccccc1 | inconclusive: 50.1 µM [inhibitor, partial curve] | –
Cc1ccc(NC(=O)c2ccc(CNc3c(N4CCOCC4)c(=O)c3=O)cc2)cc1 | inconclusive: 89.1 µM [inhibitor, single point] | –
COC(CN1C(=O)C(O)=C(C(C)=O)C1c1ccccn1)OC (stereo not given) | inconclusive: 22.4 µM [inhibitor, partial curve, poor fit] | –
CC(C)(C)NC(=O)Nc1nnc(SCC(=O)NC2CCCCC2)s1 | inactive | –
O[C@@H](CNC[C@H](O)c1ccccc1)c1ccccc1 | inconclusive: 25.1 µM [inhibitor, single point] | –
Cc1nc2cc3c(cc2c(C)c1C(=O)OC(C)C)OCO3 | inconclusive: 22.4 µM [inhibitor, single point] | –
Cc1ccc(CNC(=O)c2oc3ccc(S(=O)(=O)N4CCC(C)CC4)cc3c2C)cc1 | inactive | –
O=S(=O)(c1ccccc1)N1CCC2(CCN(Cc3ccccc3)CC2)CC1 | – | inactive: 5.22% [at 12.7 µM]
COc1ccc(CSc2nnc(Cc3sc(-c4ccccc4)nc3-c3ccccc3)o2)cc1 | – | inactive: 6.14% [at 0.0925 µM]
CC(C)(C)c1cc(C(=O)O)n[nH]1 | active: 12.6 µM | –

SMILES | Potency | activity, negative = inhibition
Cc1ccc(OC(=O)c2ccc(N3CCOCC3)c([N+](=O)[O-])c2)cc1 | – | inconclusive: -79.8% [inhibitor]
COc1ccccc1CNC(=O)c1ccc2c(c1)N(Cc1cc(C)ccc1C)C(=O)c1ccccc1S2 | inactive | –
CC(C)(C)OC(=O)N1CCC(C(=O)N2CCC[C@H]2C(=O)O)CC1 | inconclusive: 79.4 µM [inhibitor, partial curve, poor fit] | –
Cc1ccc(C(=O)CN(CCCC(N)=O)C(=O)c2ccncc2)cc1 | – | inactive: -9.37% [at 2.33 µM]
CCCCC(=O)NC(c1ccco1)c1c(O)ccc2ccccc12 (stereo not given) | – | inactive: -25% [at 12.7 µM]
CC(=O)c1cc(-c2ccccc2)n(CCC(=O)Nc2ccc(C(C)C)cc2)c1C | inconclusive: 22.4 µM [inhibitor, partial curve, poor fit] | –
CC1=N/C(=C\c2ccc([N+](=O)[O-])cc2)C(=O)N1c1ccc(Br)c(C)c1 | inconclusive: 100 µM [inhibitor, single point] | –
COc1cc(NC(=O)C(=O)NCCN2CCNCC2)c(OC)cc1Cl | inactive | –
CC(C)C(c1nnnn1CCc1ccccc1)N1CCN(C(=O)c2ccco2)CC1 (stereo not given) | inactive | –
COc1cccc(CNC(=O)C2CCN(S(=O)(=O)c3ccc(C)cc3)CC2)c1 | inactive | –
Cc1ccccc1Nc1nc(N)nc(CSc2nnc3sc4ccccc4n23)n1 | inconclusive: 50.1 µM [inhibitor, partial curve, poor fit] | –
O=C(CN1CCSCC1)c1c[nH]c2ccccc12 | inconclusive: 100 µM [inhibitor, single point] | –
O=C(O)Cn1nnnc1SCC(=O)Nc1ccc(OC(F)(F)F)cc1 | inconclusive: 56.2 µM [inhibitor, partial curve, poor fit] | –
CCn1c(CSc2nnc3ccccn23)nc2cc(C(=O)O)ccc21 | inactive | –
CCOC(=O)N1CCN(C(=O)CCn2c(=S)[nH]c3ccsc3c2=O)CC1 | active: 44.7 µM | –
Cc1sc2nc(SCC(=O)N3CCOCC3)[nH]c(=O)c2c1-c1ccccc1 | active: 44.7 µM | –
COc1ccc(NC(=O)Nc2ccc3c(c2)CCC3)cc1 | inconclusive: 31.6 µM [inhibitor, partial curve] | –
CCOC(=O)C1=C(C)NC(=S)NC1c1cc(C)sc1C (stereo not given) | inconclusive: 56.2 µM [inhibitor, partial curve, poor fit] | –
O=C(O)c1cc(S(=O)(=O)Nc2cccc(Oc3ccccc3)c2)ccc1Br | inconclusive: 79.4 µM [inhibitor, partial curve, poor fit] | –
CC(=O)Cc1nsc(NC(=O)c2ccc(COc3ccccc3)o2)n1 | inconclusive: 1.58 µM [inhibitor, full curve, poor fit] | –
Cc1cc(C)c2oc(=O)cc(CN3CCCCC3)c2c1 | inconclusive: 89.1 µM [inhibitor, single point] | –
Cc1ccc(/C=N/n2nnnc2N)o1 | inactive | –
